Laboratory results taken from paper PMC10148413.
Results are given in words; binding and its absence hold for the method and conditions named. Some entries that bind do so weakly or less than the wild type. Where a sequence is shown, tags or fusion partners need not be part of it.

Molecular target: T1, 6× His-tagged Ash1 (1041–2226 a.a.) (fly) (UniProt Q9VW15)
T1 sequence: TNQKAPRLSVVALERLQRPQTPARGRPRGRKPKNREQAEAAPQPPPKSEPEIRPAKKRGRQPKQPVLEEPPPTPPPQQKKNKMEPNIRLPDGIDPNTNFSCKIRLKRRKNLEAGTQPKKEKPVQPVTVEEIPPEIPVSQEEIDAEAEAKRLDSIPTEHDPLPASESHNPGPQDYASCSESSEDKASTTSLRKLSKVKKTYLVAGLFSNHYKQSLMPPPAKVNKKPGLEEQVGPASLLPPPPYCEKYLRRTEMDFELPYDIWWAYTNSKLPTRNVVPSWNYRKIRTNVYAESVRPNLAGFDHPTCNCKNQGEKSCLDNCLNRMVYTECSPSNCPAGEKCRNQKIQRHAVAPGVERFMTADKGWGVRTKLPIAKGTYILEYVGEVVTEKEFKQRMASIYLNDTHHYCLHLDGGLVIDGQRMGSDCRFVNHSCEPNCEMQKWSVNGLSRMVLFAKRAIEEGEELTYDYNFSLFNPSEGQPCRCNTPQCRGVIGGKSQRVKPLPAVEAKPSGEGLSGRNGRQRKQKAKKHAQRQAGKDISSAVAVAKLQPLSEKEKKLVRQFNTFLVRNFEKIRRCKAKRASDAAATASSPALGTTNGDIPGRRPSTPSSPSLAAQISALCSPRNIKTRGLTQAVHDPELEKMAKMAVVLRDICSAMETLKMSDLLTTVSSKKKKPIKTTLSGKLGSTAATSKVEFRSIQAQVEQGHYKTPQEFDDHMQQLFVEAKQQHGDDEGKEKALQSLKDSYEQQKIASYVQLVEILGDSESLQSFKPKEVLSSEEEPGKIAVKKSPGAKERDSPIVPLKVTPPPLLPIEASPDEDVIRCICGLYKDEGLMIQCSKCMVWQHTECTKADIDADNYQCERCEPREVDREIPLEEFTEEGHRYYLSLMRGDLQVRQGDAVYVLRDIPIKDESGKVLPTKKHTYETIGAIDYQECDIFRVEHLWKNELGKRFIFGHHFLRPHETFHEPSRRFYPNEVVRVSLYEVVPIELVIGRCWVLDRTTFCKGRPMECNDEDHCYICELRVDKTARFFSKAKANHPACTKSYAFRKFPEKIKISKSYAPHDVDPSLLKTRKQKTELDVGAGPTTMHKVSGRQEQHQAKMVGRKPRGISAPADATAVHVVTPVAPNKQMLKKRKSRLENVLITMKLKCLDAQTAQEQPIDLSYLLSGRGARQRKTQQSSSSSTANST
Experiment: co-purification (Ni-NTA, HiTrap Q HP, Superdex 200); His-tagged Ash1 (1041-2226), Mrg15 and Caf1 co-expressed in Sf9 cells; Ni-NTA with washes up to 1 M NaCl, tag cut by TEV, ion exchange and size exclusion in 300 mM NaCl, 50 mM Tris-HCl (8.0)

- binding: binds
B1: full-length Mrg15 (protein, UniProt Q9Y0I1 1-424)
chain: MGEVKPAKVENYSTGTDANTLFVDGERVLCFHGPLIYEAKVLKTKPDATPVEYYIHYAGWSKNWDEWVPENRVLKYNDDNVKRRQELARQCGERSKKDNKKGSAKAKKMEQMRNESRASTPSKDSNTSQSTASSTPTTSAGPGSKSEAGSTGTTTTNSTANSTTSRAHRKSTQSTPSTARPGTPSDKKEDPAAAETTEEEGPVAPKKKRMSEQRPSLTGSDVAEKPLPPTTTPSTPTTEPAPCVESEEAYAAKVEVKIKIPDELKHYLTDDWYAVVREHKLLELPAKVTVQQISEQYLAHKKSVKSTSASKEVAINDVLDGIVEYFNVMLGSQLLYKFERTQYADVMQKHPDTPLSELYGSFHLLRLFVRLGSMLSYSALDQQSMQNLLTHVQDFLKFLVKNSSIFFSMSNFINVDPEYVRNAQ
